In the supplement of paper PMC10369915:
This is one part of the list. Cut-off read from the data, not from the text of the source: active = 3.2 or more and inactive = the rest. Only a few entries rise above the background.

B1: KCNJ11_Y26 (peptide)
chain: PAEPRYRARQR
B2: KNL1_Y489_YF (peptide)
chain: NFAKMYCNPDA
B3: KLB_Y910 (peptide)
chain: YYLGKYLQEVL
B4: KRT12_Y429_R430P (peptide)
chain: LEIETYPRLLD
B5: KDR_Y357_A352V (peptide)
chain: VKYLGYPPPEI
B6: KRAS_Y4_K5E (peptide)
chain: GGMTEYELVVV
B7: KRT10_Y160_Y160N (peptide)
chain: DRLASNLDKVR
B8: KRAS_Y40_I36M (peptide)
chain: TMEDSYRKQVV
B9: KIF11_Y231 (peptide)
chain: TLMNAYSSRSH
B10: KDR_Y951 (peptide)
chain: RQGKDYVGAIP
B11: KRT14_Y129_L130P (peptide)
chain: DRLASYPDKVR
B12: KDM4B_Y34_YF (peptide)
chain: NKFVAYIESQG
B13: KLB_Y906_Y906H_YF (peptide)
chain: RLRKFHLGKFL
B14: KCNT1_Y876_M877I (peptide)
chain: SAEEDYIADAK
B15: KCNQ1_Y267_L262V (peptide)
chain: VITTLYIGFLG
B16: KDM4B_Y31_YF (peptide)
chain: KDFNKYVAFIE
B17: KRT14_Y129_R134P (peptide)
chain: DRLASYLDKVP
B18: KRAS_Y32_P34L (peptide)
chain: HFVDEYDLTIE
B19: KPNA1_Y493 (peptide)
chain: ENQEIYQKAFD

The binders below were run against SHP2 C-SH2 domain E139D (assay: enrichment score (SH2-bound / input frequency) (ratio); bacterial display of known human phosphotyrosine sites (pTyr-Var adds point mutants) read by sequencing; higher = stronger binding; tyrosines were phosphorylated by kinases first). Settings: peptide library: pTyr-Var.
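Note: displayed peptides selected on beads carrying the immobilized SH2 domain, with library peptides lacking any tyrosine serving as negative controls.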

Binder | enrichment score
B1 | inactive: 0.236
B2 | inactive: 0.518
B3 | inactive: 1.4
B4 | inactive: 0.674
B5 | inactive: 0.784
B6 | inactive: 0.929
B7 | inactive: 0.667
B8 | inactive: 1.04
B9 | inactive: 0.795
B10 | inactive: 0.652
B11 | inactive: 0.665
B12 | inactive: 1.08
B13 | inactive: 0.341
B14 | inactive: 0.618
B15 | inactive: 2.6
B16 | inactive: 0.957
B17 | inactive: 0.832
B18 | inactive: 0.926
B19 | inactive: 0.604

The binders below were run against SHP2 C-SH2 domain wild-type in the same assay as above. Settings: peptide library: pTyr-Var.

Binder | enrichment score
B1 | inactive: 0.252
B2 | inactive: 0.596
B3 | inactive: 1.51
B4 | inactive: 0.796
B5 | inactive: 1.35
B6 | inactive: 0.754
B7 | inactive: 0.777
B8 | inactive: 0.539
B9 | inactive: 0.572
B10 | inactive: 0.668
B11 | inactive: 0.664
B12 | inactive: 0.944
B13 | inactive: 0.494
B14 | inactive: 0.62
B15 | active: 3.31
B16 | inactive: 0.944
B17 | inactive: 0.732
B18 | inactive: 0.898
B19 | inactive: 0.581

What follows are binders tested against SHP2 N-SH2 domain L43F in the same assay as above. Settings: peptide library: pTyr-Var.

Binder | enrichment score
B1 | inactive: 0.222
B2 | inactive: 0.459
B3 | inactive: 1.49
B4 | inactive: 1.01
B5 | inactive: 0.831
B6 | inactive: 0.85
B7 | inactive: 0.637
B8 | inactive: 0.734
B9 | inactive: 0.722
B10 | inactive: 0.691
B11 | inactive: 0.655
B12 | inactive: 0.949
B13 | inactive: 0.292
B14 | inactive: 0.428
B15 | active: 3.23
B16 | inactive: 0.715
B17 | inactive: 1.04
B18 | inactive: 0.968
B19 | inactive: 0.738

What follows are binders tested against SHP2 N-SH2 domain T42A in the same assay as above. Settings: peptide library: pTyr-Var.

Binder | enrichment score
B1 | inactive: 0.276
B2 | inactive: 0.637
B3 | inactive: 1.42
B4 | inactive: 0.788
B5 | inactive: 2.76
B6 | inactive: 0.654
B7 | inactive: 0.662
B8 | inactive: 0.369
B9 | inactive: 0.519
B10 | inactive: 0.481
B11 | inactive: 0.6
B12 | inactive: 0.971
B13 | inactive: 0.269
B14 | inactive: 0.51
B15 | inactive: 3.12
B16 | inactive: 0.804
B17 | inactive: 0.718
B18 | inactive: 0.94
B19 | inactive: 0.637

What follows are binders tested against SHP2 N-SH2 domain T52S in the same assay as above. Settings: peptide library: pTyr-Var.

Binder | enrichment score
B1 | inactive: 0.226
B2 | inactive: 0.577
B3 | inactive: 1.37
B4 | inactive: 0.91
B5 | inactive: 0.987
B6 | inactive: 1.05
B7 | inactive: 0.701
B8 | inactive: 0.473
B9 | inactive: 0.752
B10 | inactive: 0.617
B11 | inactive: 0.712
B12 | inactive: 0.973
B13 | inactive: 0.375
B14 | inactive: 0.664
B15 | inactive: 2.7
B16 | inactive: 0.861
B17 | inactive: 0.762
B18 | inactive: 0.667
B19 | inactive: 0.616

These binders were tested against SHP2 N-SH2 domain wild-type in the same assay as above. Settings: peptide library: pTyr-Var.

Binder | enrichment score
B1 | inactive: 0.206
B2 | inactive: 0.582
B3 | inactive: 1.36
B4 | inactive: 0.81
B5 | inactive: 0.846
B6 | inactive: 0.981
B7 | inactive: 0.75
B8 | inactive: 0.546
B9 | inactive: 0.703
B10 | inactive: 0.728
B11 | inactive: 1.01
B12 | inactive: 0.998
B13 | inactive: 0.375
B14 | inactive: 0.625
B15 | inactive: 3.18
B16 | inactive: 0.826
B17 | inactive: 0.979
B18 | inactive: 1.2
B19 | inactive: 0.771
